Test results taken from the supplement of paper PMC12632987.
In all, about 2,300 sequences were measured (“median log2 fold change of GCK-ALFA target abundance (FLAG IP / Myc IP barcode read proportion)”: median about 0.095, lowest 2% from about -0.47 on). Some of the results follow.

B1: LC3A_3_1460 (protein)
chain: AEELIKEAREILKKQGASEETIKAAEELLKELAKKGYLEAMKTVVELLKEMKGVSSEILLETFKELLEIVKTEDLSEEEIIKKIKEEFAAAKSENEIIEL
B2: LC3A_3_1477 (protein)
chain: MEKEKEEAIKLLKEAGWSEETIKAFQEALDKLKELGFEEAAKTLIKQAKKLADLPDELALDFFKEVLAAIDELKDDEEALIKEIESIAAATLSEGEIIEL
B3: LC3A_45_1936 (protein)
chain: MYKATIDVLVPKELAEKAYNLIKEEGKELEKEYGDRIKVDFEKLEKSYEETKNEEDVYLELEIYADDEQLALDAAVRIVDRLEEELNGKAAAIISVEKLP
B4: LC3A_free_39_2242 (protein)
chain: SEEEEEEAKKEILELAKEEGEEAKKLAEKLLKILEGYPEAVKELLKLLKELKKEGGDVLEALRRALEVAERLQAEGKSQEEIAKAIIEELKDELNLIPLD
B5: LC3A_free_39_2276 (protein)
chain: SAAERAAALAAAEALAASLSPEGAALLRRLLARFADDPEAVRRIVAALERAREEGADMLEILRRALAVVDAGEAAGLSREEIAERVLAEIEDLINLQPLD
B6: LC3A_3_1384 (protein)
chain: AEERIERTLERLREAGHSEETIEAARRAAEALLEKGYEEALETFLELVEELIHLPDEQLLALFAEVLELIETEDLDEETLTERIKEIATVFKNESEIIEL
B7: LC3A_147_510 (protein)
chain: YLVEIDVDLLVKNAVEEVKKRFKEIVEKLKKKGYKVELEIKEEKIDENTYYVEVTIKIYAETKEEAEKAANETLSLLDEMLEELKDEILGSLISVDIEET
B8: LC3A_127_177 (protein)
chain: EVEELLKRVIELAERLSKLLQDPNATLEELLKQAEELLKAAEELLKLDPRAEPVLEDAKELVKLLKQAKTADAATREQLLEQAELLVEGILVDAELLLLR
B9: LC3A_3_1706 (protein)
chain: MEELLKEAREILEKHGKSEETIEAALEALKALLEKGYEEAAKTLLELLKESEDLSDEILLWFFEEVKKVVEDPSLNEEEVIEKIKELYQIAKNEQEIEEL
B10: LC3A_3_1365 (protein)
chain: MEEEIEELLKYLKSKGKSEETLKAVRETLEALIEKGYYEAARTFIELMRELSHLPDELLLDLAEEVLEKVKTEDLSEEELIEYIKSLARIALNEAEIEEL
B11: LC3A_45_1995 (protein)
chain: MALATIDILVPRELAEEAYELIKEIAKEVEKEYNGKVKVDWEVLEKTYEATKDEEEVLFEVKIYAPNEELALDAADKIVDRLSERLGNRIAAIISVEEVE
B12: LC3A_28_884 (protein)
chain: GKALESAKKALEEVKKAMAAGNKEPLVLEVDAPSEEEEVEEFIKLLDEIAEEASKGRKVTVVIDIDEEVSEENRNKIIDHAEEIEEKYPNVTVIIALPEE
B13: LC3A_28_853 (protein)
chain: SKVEEQIAAARAELEAAAAAGEPVTLVLTVSGDLTEEEIEEFIEGLEELAALAEEHGGHSIIINVEEGVKEEHINEIMDAAERIEEKYPKVTVIIALPEE
B14: LC3A_3_1711 (protein)
chain: GEELIEEAEKILKEKGLSEETKKAVLEALKALLEKGYINAAKELIKLLKEAKDLSDEVILDFAKDVLEYVKTEDVSEEETIKKIKEEYEIAKNEEEIEEL
B15: LC3A_102_135 (protein)
chain: KVEEILERAKERLRERLEEFFEEHPEFSEEEKERALELGEEAIEAAAESAITEEQHGFVDIVAEDKRLEALEELREIHPELAKIAEEAIKELAEEIKKLF
B16: LC3A_28_792 (protein)
chain: MEIEKELKKAKEEAEKALEKGEEVTLTITVTGKTTLEDAKKLVEGLKEIVEKAKDLPRVNIVIDVDGKISPEVLKVLADGGDELEEKYPNVNVVIALDEE
B17: LC3A_28_1278 (protein)
chain: SALDKSLAAAKAEAEQAKANKESAVITIKVPGTATEEDIEKVIKALEEIAEILKDIPNQAIVVDVDGKVPQEHIDKIADKAEEIEEKYPNITVIIALGEE
B18: LC3A_128_229 (protein)
chain: NETREEIKRLLEEAKKILEAAKSEELPKELWEAALKAIEEAIKLVEENAPVEEIKKAIDEAIKKTEELYLYAKSKGLPEATDIAEALILLNQAWLLAQEL
B19: LC3A_3_1860 (protein)
chain: MEAIIARILALLKELGRSEETIAAARALAEALAARGYEAALETLLAELEKLKDVSDEILLAMFEDLLAALATRDLSEEELIALIKEEATVALNEQEIEEL
B20: LC3A_3_1357 (protein)
chain: MDAAIEAMLAELRAAGHSDETIAAAERAARALAARGYEAALETFIALMRELAHLPDELLLALAEDVLRAVEEEDLSEEELIEFIRSEARVARNEAEIEEL
B21: LC3A_16_523 (protein)
chain: AAELQARLDLLTAASNVPEDDLEAFAALLKELAPERAAAIDAALQRPDAALLLHREAAAAARELAERARAAGDEETVTQAELIESDFEVRAALAEVRLEE
B22: LC3A_3_1576 (protein)
chain: SEEFIEEAEKRLREAGLSEKVIEKAREVLELLLEKGWLETAELVVEGLLELKDAPEELLLEALEEVKEVAEDESLSEEEKLERVKEILSTAKSEAEIIEL
B23: LC3A_free_46_2297 (protein)
chain: YIVNIDVDLYGLTKEQAEKFVEELKKELEKIAKEYNVEVKIEVEIEKNEDGTYYVKINITVKAETKEKAEEVKNKIIEEIDKLAEKYGASYIISYEIEEE
B24: LC3A_141_361 (protein)
chain: ATKKETFTLTAKTEEEAIEVAEKIKEKIREFMEKTGAKEVKVTVTITAYNKKTGEVKTETIVETVTPENLDLFEEGLLIELLSYFEKGADEVKVTVTIES
B25: LC3A_28_859 (protein)
chain: SETRESIEKARKELEEAKEKGEPVTIEITVTEDVTEEEVEEVIELIELAAEVSKEVPDVSVIIDFDGEIDQEKLDRILNAAEEAIEKNPKLNVIFALDEK
B26: LC3A_3_1738 (protein)
chain: MEERLEEVRERLEELGFSEEVIEAALELARALLERGFEEAVETLLEKLEELKDLPDEILIAMLEDILRYVRENDLSEEEVIEKIEEEATVARNEAEIEEL
B27: LC3A_59_2019 (protein)
chain: MEEIEEYREKLREAIDNIDEFVEIVREGLEKFKDDKEKVEALLEEVMEVIVEELGADPEEAEKVLKRMKEIFKTEKDKEKAIELVVDEIRDLLLLTPIEE
B28: LC3A_13_347 (protein)
chain: TINITAETPEELLKKSKAALEAHPGQTLNITVTINNEEEAEAVAEAIKEIIDLAIEKGNKLNITLKGKRDLVLYAALLVGSYLFEKNGQIDANVSIEEVE
B29: LC3A_141_358 (protein)
chain: ATQTKTITLEAKTEEEAEKVAEEIGKAIRDFMKATGAETVTLTLTITSYNEKTGETKTRTETLTVTWENLDMVEEGILITILSEFEKGATHITVTATITT

These binders were tested against MAP1LC3A, Q9H492 (assay: median log2 fold change of GCK-ALFA target abundance (FLAG IP / Myc IP barcode read proportion) (log2 ratio); each designed protein is fused to an ALFA-tag nanobody in HEK293 cells to bring the named protein to FLAG-tagged glucokinase (GCK); Myc marks an untargeted standard; higher = target protein stabilised (more abundant)). Settings: target protein: 3xFLAG-MCP-GCK-ALFA reporter; HEK293 landing pad (RPLP).
Summary of the method: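 Binders fused to an ALFA nanobody were recombined as a library into HEK293 landing-pad cells, which were induced with 2 μg mL^−1 doxycycline and then transfected to express a FLAG-tagged target and a Myc-tagged standard. After 48 h, circular RNA barcodes recovered by anti-FLAG and anti-Myc immunoprecipitation of lysates were reverse transcribed, amplified and sequenced. Each binder's target abundance is the median log2 ratio of FLAG to Myc barcode read proportions, from barcodes present at ≥10^−7 in both replicates, binders carrying ≥3 barcodes per replicate, a 10^−6 pseudocount and pooled replicates.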

B1 and B2 are within 0.2 log units of each other in “median log2 fold change” value: 0.182 for the first, 0.203 for the second.

Compared with B3, B4 is higher in “median log2 fold change” value: -0.132 for the first, 0.2 for the second.

B5 and B6 are within 0.2 log units of each other in “median log2 fold change” value: 0.252 for the first, 0.205 for the second.

Going from B7 to B8, the “median log2 fold change” value rises from -0.119 to 0.149.

Compared with B9, B10 is lower in “median log2 fold change” value: 0.47 for the first, 0.265 for the second.

B11 and B12 are within 0.2 log units of each other in “median log2 fold change” value: -0.0958 for the first, -0.247 for the second.

Compared with B13, B14 is lower in “median log2 fold change” value: 0.185 for the first, -0.0281 for the second.

Compared with B15, B16 is higher in “median log2 fold change” value: -0.224 for the first, 0.428 for the second.

B17 and B18 are within 0.2 log units of each other in “median log2 fold change” value: -0.00815 for the first, -0.0692 for the second.

B19 and B20 are within 0.2 log units of each other in “median log2 fold change” value: 0.346 for the first, 0.232 for the second.

B21 and B22 are within 0.2 log units of each other in “median log2 fold change” value: 0.256 for the first, 0.249 for the second.

B23 and B24 are within 0.2 log units of each other in “median log2 fold change” value: 0.126 for the first, -0.0634 for the second.

B25 and B26 are within 0.2 log units of each other in “median log2 fold change” value: 0.187 for the first, 0.2 for the second.

First: B27
Second: B28
The “median log2 fold change” value of the first is lower: -0.514 for the first, -0.0255 for the second.

In the case of B29, the “median log2 fold change” value is reported as 0.25.
